Results reported in PubChem BioAssay AID360 (National Center for Advancing Translational Sciences (NCATS), 2006).
In all, about 48,000 compounds went through this assay and about 550 (1.1%) were called active. Roughly 4% stayed inconclusive and do not appear here. Rule as the data show it: active = potency below about 15 µM; inconclusive = mostly about 16 µM to 33 µM; inactive = weaker than that. Some of the results follow.

What follows are compounds tested against Lysosomal acid glucosylceramidase (Homo sapiens) (UniProt P04062) (assay: Glucocerebrosidase). Conditions: purified enzyme, resorufin glucoside fluorescence (screen aimed at inhibitors), 20 min.
Sequence of UniProt P04062 (P04062 whole entry, looked up): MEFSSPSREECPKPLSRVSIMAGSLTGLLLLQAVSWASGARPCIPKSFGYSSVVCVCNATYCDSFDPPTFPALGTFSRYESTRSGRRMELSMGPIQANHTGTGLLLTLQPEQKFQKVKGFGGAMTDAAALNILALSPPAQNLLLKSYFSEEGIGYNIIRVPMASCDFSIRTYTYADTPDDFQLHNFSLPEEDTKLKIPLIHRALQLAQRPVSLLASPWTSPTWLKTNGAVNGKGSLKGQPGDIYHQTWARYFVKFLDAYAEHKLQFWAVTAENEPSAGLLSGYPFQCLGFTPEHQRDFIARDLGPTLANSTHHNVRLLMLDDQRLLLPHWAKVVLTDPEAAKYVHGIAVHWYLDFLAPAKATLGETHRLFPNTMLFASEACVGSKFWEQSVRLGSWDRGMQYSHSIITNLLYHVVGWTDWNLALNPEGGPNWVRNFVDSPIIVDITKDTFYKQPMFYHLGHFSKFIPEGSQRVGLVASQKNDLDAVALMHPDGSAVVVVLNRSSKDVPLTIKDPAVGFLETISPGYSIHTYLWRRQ
Summary of the method: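 Wild-type enzyme at 0.2 nM final in 50mM citric acid/KH2PO4, 10mM sodium taurocholate, 0.01% tween-20, pH 5.9, with resorufin beta-D-glucopyranoside at 30 uM final. Compounds titrated, 20 min at RT, red fluorescence read; AC50 from titration.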
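Also: the screen sought inhibitors.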
Potency is read from the fitted curve at half-maximal effect.

Potency, inactive:
OC1(c2cccc(F)c2)CCN(Cc2ccncc2)CC1 > 76.9 µM
Cc1cc(C)cc(N(CCC#N)C(=O)CSc2nc3nc(C)cc(C)n3n2)c1 > 76.9 µM
CCN(CC)S(=O)(=O)c1ccc(NC(=O)CN(c2ccc(OC)cc2OC)S(C)(=O)=O)cc1 > 76.9 µM
O=C(CSc1nnnn1-c1ccc2c(c1)OCO2)NCc1ccccc1 > 76.9 µM
CCCc1ncc(C(O)c2cccc3ccccc23)n1C (stereo not given) > 76.9 µM
COc1ccc(OC)c(NC=C2C(=O)OC3(CCCCC3)OC2=O)c1 > 76.9 µM
Cc1cccn2cc(CNC(=O)c3ccco3)nc12 > 76.9 µM
CCC1CCCCN1CCCNC(=O)Cn1nc(-c2ccccc2)ccc1=O (stereo not given) > 76.9 µM
COCCNC(=O)CN(c1cc(Cl)ccc1OC)S(C)(=O)=O > 76.9 µM
CC1(C(=O)NC2CCCC2)CCC(=O)N1Cc1ccccc1 (stereo not given) > 76.9 µM
CCC(C)(C)NC(=O)C1CCN(c2nc(C)cc(C)n2)CC1 > 76.9 µM
CN(C(=O)c1ccc(Cl)c(S(=O)(=O)N2CCOCC2)c1)c1ccccc1C(=O)O > 76.9 µM
COc1ccccc1-c1cc(C(F)(F)F)nc(S(=O)(=O)CCCC(=O)NC(C)C)n1 > 76.9 µM
Cc1cccc(Nc2nc(NC(C)C)nc(Oc3ccc(=O)n(C)n3)n2)c1 > 76.9 µM
CC(C)(C)NS(=O)(=O)c1ccc2nc(NC(=O)Cc3cccs3)sc2c1 > 76.9 µM
COc1ccc(Cn2nnnc2C(c2ccc(N(C)C)cc2)N2CCC(C)CC2)cc1 (stereo not given) > 76.9 µM
CCn1c(SCC(=O)NC)nnc1C(C)C > 76.9 µM
CCOc1ccc(NC(=O)Cn2nnc(C(=O)NCc3ccccc3OC)c2N)cc1 > 76.9 µM
C1=Nc2c(Nc3ccccc3)ncnc2Oc2ccccc21 > 76.9 µM
CCOC(=O)c1cccc(NC(=O)CSc2nnnn2CC)c1 > 76.9 µM
O=C(NCC1CCCO1)C1C2C=CC3(CN(Cc4cccs4)C(=O)C13)O2 (stereo not given) > 76.9 µM
N#CC(C(=O)OC1CCCCC1)c1nc2ccccc2nc1N1CCCCC1 (stereo not given) > 76.9 µM
O=C(NC1CC2CCCC(C1)N2CC(=O)N1CCCc2ccccc21)C1CCCCC1 (stereo not given) > 76.9 µM
CCOC(=O)Nc1ccc(C(N)=O)cc1 > 76.9 µM
COc1ccccc1N1CCN(C(=O)CSc2nnc3n2C(C)(C)Cc2ccccc2-3)CC1 > 76.9 µM
CCCn1c(-c2ccc(F)cc2)cnc1SCC(=O)O > 76.9 µM
CCOC(=O)N1CCN(C(=O)CN(c2ccc3c(c2)OCO3)S(C)(=O)=O)CC1 > 76.9 µM
Cc1ccc(SCCC(=O)NCC2CCCO2)cc1 (stereo not given) > 76.9 µM
COc1ccc(OC)c(S(=O)(=O)N2CCC(C(=O)N3CCN(Cc4ccccc4)CC3)CC2)c1 > 76.9 µM
Cc1nc2ccc(NC(=O)N3CCCCC3)cc2s1 > 76.9 µM
CCN(CC(=O)Nc1cccc(OC)c1)C(=O)C1CCN(C(=O)Nc2ccccc2)CC1 > 76.9 µM
Cc1onc(-c2ccccc2)c1C(=O)N1CCOCC1 > 76.9 µM
CCOC(=O)C(NCc1ccc2c(c1)OCO2)(NC(=O)CC)C(F)(F)F (stereo not given) > 76.9 µM
CC(=O)c1cc(-c2ccccc2)n(CC(=O)N2CCN(C3CCCC3)CC2)c1C > 76.9 µM
Cc1ccc(S(=O)(=O)NCC(C)NS(=O)(=O)c2ccc(C)cc2)cc1 (stereo not given) > 76.9 µM
Cn1cnnc1Sc1nc2ccccc2nc1NS(=O)(=O)c1ccccc1 > 76.9 µM
C=CCn1c(Cc2cccs2)nnc1SCC(=O)c1ccc(F)cc1 > 76.9 µM
O=C(NCCCN1CCCC1=O)c1ccc(Cl)c(NS(=O)(=O)c2ccc(F)cc2)c1 > 76.9 µM
COc1ccc(OC)c(S(=O)(=O)Nc2ccc(C(N)=O)cc2)c1 > 76.9 µM
O=C1C2CC=CCC2C(=O)N1c1n[nH]c(Cc2ccccc2)n1 (stereo not given) > 76.9 µM
O=C(NCCN1CCOCC1)c1ccc(CS(=O)(=O)c2ccc(Cl)cc2)o1 > 76.9 µM
Cn1c(COc2ccccc2)nnc1SCC(=O)NCc1ccccc1 > 76.9 µM
CCC(c1nnc(SCC(=O)N2CC(=O)Nc3ccccc32)n1Cc1ccccc1)N(C)C (stereo not given) > 76.9 µM
COc1ccc2c(=O)c(N3C(=O)c4ccccc4C3=O)coc2c1 > 76.9 µM
CC(C)C(=O)Nc1nnn(C)n1 > 76.9 µM
O=C(CCS(=O)(=O)c1ccc(Br)s1)NCc1ccc2c(c1)OCO2 > 76.9 µM
Cc1nn(CCC(=O)O)c2nc(-c3cccnc3)cc(C(F)(F)F)c12 > 76.9 µM
CCOC(=O)C1CCCCN1Cc1ccc(OC)c(OC)c1OC (stereo not given) > 76.9 µM
Cn1c(=O)cc(SCC(=O)N2CCOCC2)c2ccc(Cl)cc21 > 76.9 µM
O=S(=O)(Nc1ncccn1)c1ccc(Nc2ncnc3ccccc23)cc1 > 76.9 µM
Cc1ccc(-n2c(SCC(=O)Nc3nccs3)nc3c(c2=O)SCC3)cc1 > 76.9 µM
Cc1ccc(-c2nnn(CCC(=O)N3CCCCC3C)n2)cc1 (stereo not given) > 76.9 µM
Cc1c(C(=O)NCCCN2CCOCC2)sc2ncnc(N3CCN(c4ccccc4)CC3)c12 > 76.9 µM
CC(=O)N1CCc2cc(S(=O)(=O)NC(CC(C)C)C(=O)Nc3cc(C(=O)O)ccc3C)ccc21 (stereo not given) > 76.9 µM
CCOC(=O)N1CCN(C(=O)Cn2cc3c(n2)CCCC3)CC1 > 76.9 µM
Cc1ccc(S(=O)(=O)CCC(=O)OCC(=O)Nc2cc(C)on2)cc1 > 76.9 µM
CCSc1nc2c(c(=O)n(C)c(=O)n2C)n1Cc1ccc(Cl)cc1 > 76.9 µM
Cc1ccccc1Cc1c(C)nc2c(C(=O)N3CCN(Cc4ccc5c(c4)OCO5)CC3)cnn2c1C > 76.9 µM
CC(=O)Nc1ccc(S(=O)(=O)NCC2CCC(C(=O)N3CCCCCC3)CC2)cc1 (stereo not given) > 76.9 µM
O=C(c1cccnc1NCc1ccccc1)N1CCOCC1 > 76.9 µM
CCc1nc(SCC(=O)Nc2ccc3c(c2)OCCO3)c2oc3ccccc3c2n1 > 76.9 µM
O=C1CCCN1c1cc(Cl)ccc1Cl > 76.9 µM
CCCCCCOc1ccc(C(CC(=O)O)C(N)=O)cc1 (stereo not given) > 76.9 µM
O=C(Nc1nccs1)c1cccc(NC(=O)C2CC2)c1 > 76.9 µM
Cn1c(=O)c2cc(S(=O)(=O)N3CCC(c4ccccc4)CC3)ccc2n(C)c1=O > 76.9 µM
CC(C)N(c1ccccc1)c1ccc(NC(=O)C2CCCO2)cc1 (stereo not given) > 76.9 µM
Cc1ccc(C(=O)CSc2nnc(COc3cccc(C)c3)o2)cc1 > 76.9 µM
O=C(NC1=NCCS1)c1ccncc1 > 76.9 µM
COCCNc1ncnc2c1cnn2Cc1ccc(Cl)cc1 > 76.9 µM
CC1CCOC2(O1)C(=O)N(CN1CCN(c3ccccc3F)CC1)c1ccccc12 (stereo not given) > 76.9 µM
O=C(c1ccc(Br)cc1)C1CCc2occc2C1=O (stereo not given) > 76.9 µM
Cc1ccc(NC(=O)Cn2nc(C)cc2C)cc1 > 76.9 µM
c1ccc(-c2nnc(Cn3c4ccccc4c4nc5ccccc5nc43)o2)cc1 > 76.9 µM
CN(C)C(=O)C12CCC(C)(c3nc4ccccc4nc31)C2(C)C (stereo not given) > 76.9 µM
O=C(CCC(=O)c1cccs1)OCc1nnc(-c2ccccc2)o1 > 76.9 µM
CC(CN1CCCCC1)OC(=O)c1ccccc1Cl (stereo not given) > 76.9 µM
Cn1c(CN2CCOCC2)nnc1SCC(=O)NCCc1ccccc1 > 76.9 µM
Cc1nc(CN2CCN(C(=O)NC3(c4ccccc4)CC3)CC2)cs1 > 76.9 µM
CNC(=O)C1CC(=O)N(Cc2ccc3c(c2)OCO3)C(=Nc2ccc(F)cc2)S1 (stereo not given) > 76.9 µM
CC1(C)N=C(/C=N/O)CN1O > 76.9 µM
Cc1ccc(C)c(NC(=O)c2nnn(Cc3ccccc3C)c2N)c1 > 76.9 µM
CC(C)(C)S(=O)(=O)c1c(C(=O)O)cccc1C(=O)O > 76.9 µM
CCCOc1ccc(/C(O)=C2/C(=O)C(=O)N(c3cc(C)on3)C2c2ccc(C(=O)OC)cc2)cc1 (stereo not given) > 76.9 µM
CCc1nnc(NC(=O)CSc2ncc(-c3ccccc3)n2C)s1
CC(C)C[C@H](N)c1nnc(S(=O)(=O)Cc2cccc(F)c2)o1 > 76.9 µM
COC(=O)CNC(=O)Cc1c(F)cccc1Cl > 76.9 µM
Cc1ccc(C(=O)Oc2ccc3c(c2)ncn3C)cc1 > 76.9 µM
O=C(c1ccc(F)cc1)N1CCC(O)(c2cccnc2)CC1 > 76.9 µM
Cc1ccc(C)c(N2CCN(C(=O)COc3cc(=O)n(C)c4ccccc34)CC2)c1 > 76.9 µM
O=C1CCCC2=C1C(c1c(Cl)nc3sccn13)C1=C(CCCC1=O)N2 > 76.9 µM
